Measured values from PubChem BioAssay (NCATS).
The inconclusive results got no clear call from the source; some entries with a clear call stand among them for comparison. Where the call is inconclusive, the potency comes from a doubtful curve fit. A note “side channel” means that the fit belongs to a control or component signal, not to the main read-out. Activity calls are given as the source filed them. Calls come from the whole dose curve; as a rule, active = well fitted activation curve with a large enough effect in the signal ratio, with a control signal flat (not every such curve was filed as active); inconclusive = small, poorly fitted or top-dose-only effect, or effect the other way, or a change in a side signal; inactive = flat fitted curve, though single readings scatter; the % refers to the signal ratio.

Assay: qHTS Assay for Identification of Small Molecule Agonists for Hypoxia Response Element Signaling Pathway (AID 914); for activation: top concentration of the series differs between compounds; % of control where 0% means no effect
Settings: ME-180 (cervical carcinoma) HRE-bla reporter, beta-lactamase ratio, CoCl2, 17 h; activation: hits give high values
Description: NIH Molecular Libraries Screening Centers Network [MLSCN]
NIH Chemical Genomics Center [NCGC]
Hypoxia-inducible factor-1 (HIF-1) is the major hypoxia-regulated transcription factor that controls cellular responses to low oxygen concentration. HIF-1 is composed of two subunits: hypoxia responsive HIF-1 alpha and constitutively expressed HIF-1 beta, which is also known as aryl hydrocarbon receptor nuclear translocator. During hypoxic conditions, HIF-1 alpha heterodimerizes with HIF-1 beta and translocates into the nucleus where the HIF-1 complex binds to the hypoxia-response element (HRE) and activates expression of target genes such as VEGF (vascular endothelial growth factor). HIF-1 alpha protein levels are elevated in many solid tumors, including those of the cervix and brain. Within tumors, cells that are the greatest distance from blood vessels and therefore the most hypoxic express the highest levels of HIF-1 alpha. Therapeutic blockade of the HIF-1 signaling pathway in cancer cells therefore provides an attractive strategy for development of anticancer drugs.
Using a beta-lactamase reporter-gene under control of the hypoxia response element, a cell-based assay [CellSensor(TM) HRE-bla ME-180 developed by Invitrogen Corp.] was used to measure hypoxia-induced signaling. Library compounds were measured for their ability to positively modulate the action of EC50 CoCl2 on reporter gene activity. Compounds were screened in a titration series in 1536-well format. Positive modulators were identified based on the AC50 values derived from the screening data.
NCGC Assay Protocol Summary:
2500 cells/5uL in Opti-MEM medium containing 0.5% dialyzed FBS, 0.1 mM NEAA, 1 mM sodium pyruvate and 10 mM HEPES was dispensed into 1536-well plates and cells were cultured at 37 degrees Celsius overnight. Next day 23 nL of compounds or DMSO were delivered to each well using a pin tool, and 1uL of EC50 level of CoCl2, or EC100 level of CoCl2, or assay medium was added. And then the plates were incubated at 37 degrees Celsius for 17 hours. 1 uL of CCF4-dye mixture was added to each well. After incubated at room temperature for 2.5 hours the plates were measured on an EnVision plate reader at Excitation 405nm, Emission1=460nm and Emission 2=530nm. The %Activity was determined from the ratio of 460nm/530nm.
Potency is the fitted concentration of half-maximal effect; tags give direction and shape of the fitted curve or compound fluorescence and quenching.

SMILES	activation	Potency
C[C@H]1CC[C@@]2(NC1)O[C@@H]1C[C@H]3[C@@H]4CC[C@@H]5C[C@@H](O)CC[C@@]5(C)[C@@H]4CC[C@]3(C)[C@@H]1[C@@H]2C	inconclusive: 34.1%	–
COc1cc2c(c(OC)c1OC)-c1ccc(O)c(=O)cc1[C@H](N)CC2	–	inconclusive: 2.51 µM [inhibitor, partial curve]
CNCCc1nc(N)n[nH]1	inactive: 12.1%	–
COc1ccc2c(c1O)-c1cccc3c1[C@H](C2)N(C)CC3	–	inconclusive: 12.6 µM [inhibitor, partial curve]
CC(C)c1nccn1Cc1ccc(Cl)cc1Cl	–	inconclusive: 0.398 µM [inhibitor, full curve]
CCOP(=O)(c1ccccc1)c1nc(-c2ccc(F)cc2)oc1N1CCCCC1 (stereo not given)	–	inconclusive: 12.6 µM [inhibitor, partial curve]
O=C(O)CSCC(=O)O	–	inconclusive: 0.0316 µM [inhibitor, full curve, poor fit]
c1coc(CNc2ncnc3nc[nH]c23)c1	–	inconclusive: 12.6 µM [inhibitor, single point]
CN1CCc2nc(SCC(=O)OC(C)(C)C)c(C#N)cc2C1	inconclusive: -14.6%	–
C[C@@H]1CC[C@@H]2N(C1)C[C@H]1[C@@](O)([C@H](O)C[C@]3(O)[C@H]4CC[C@H]5[C@]6(O)O[C@]4(C[C@]13O)[C@@]5(C)CC[C@@H]6O)[C@@]2(C)O	–	inconclusive: 0.794 µM [inhibitor, single point]
C[C@@]12CC[C@H]3[C@@H](CCC4=C(O)C(=O)CC[C@]43C)[C@H]1CCC2=O	–	inconclusive: 10 µM [inhibitor, single point]
c1ccc(C[N+]23CN4CN(CN(C4)C2)C3)cc1	–	inconclusive: 1 µM [inhibitor, single point]
COc1cc2c(cc1OC)[C@@]13CCN4C=C5CCO[C@H]6CC(=O)N2[C@@H]1[C@@H]6[C@H]5C[C@H]43	inactive: -4.7%	–
c1cnc(N2CC3(CCNCC3)C2)nc1	inconclusive: -23.9%	–
NS(=O)(=O)C[C-]1C=C[CH]([Sb-]([Cl])([Cl])([Cl])([Cl])[Cl])C=C1.c1ccncc1 (stereo not given)	inconclusive: 1.95%	–
COC(=O)[C@H]1C(=O)[C@H](C(=O)OC)[C@@H]2CC[C@H]1N2C	–	inconclusive: 1 µM [cytotoxic, side channel]
C[C@@]12CC[C@H]3[C@H](CCC4=CC(=O)CC[C@H]43)[C@H]1CC[C@H]2OC1(O)C(=O)c2ccccc2C1=O	–	inconclusive: 3.98 µM [inhibitor, partial curve]
CN1CCC2=C[C@H](O)[C@@H]3OC(=O)c4cc5c(cc4[C@H]3[C@H]21)OCO5	inconclusive: -26.3%	–
NC(=O)CN1C[C@@H](O)CC1=O	inactive: 9.85%	–
O=C(O)[C@H]1[O][Sb][O][C@@H](C(=O)O)C1O (stereo not given in full)	–	inconclusive: 0.126 µM [inhibitor, single point]

SMILES	activation	Potency
Cc1cc(Cc2cc(C)c(N)cc2N)c(N)cc1N	–	inconclusive: 3.98 µM [inhibitor, partial curve]
CN1C[C@H](C(=O)N[C@@]2(C)O[C@@]3(O)[C@H]4CCCN4C(=O)[C@@H](Cc4ccccc4)N3C2=O)C=C2c3cccc4[nH]cc(c34)C[C@@H]21	–	inconclusive: 3.16 µM [inhibitor, partial curve]
O=C(O)[C@H]1C2c3ccccc3C(c3ccccc32)[C@@H]1C(=O)NCC1CC1	inactive: -0.158%	–
Cc1noc(COc2ccccc2OCC(O)CNC(C)(C)C)n1 (stereo not given)	–	inconclusive: 12.6 µM [inhibitor, single point]
CC(C)(C)c1cc(C#N)cc(Br)c1OP(=O)(Oc1c(Br)cc(C#N)cc1C(C)(C)C)c1ccccc1	inconclusive: -5.8%	–
CC(C)[C@@]1(NC(=O)[C@@H]2C=C3c4cccc5[nH]cc(c45)C[C@@H]3N(C)C2)O[C@]2(O)[C@H]3CCCN3C(=O)[C@H](Cc3ccccc3)N2C1=O	–	inconclusive: 25.1 µM [cytotoxic, side channel, partial curve]
Cc1nc2ccccc2cc1C[N+]12CN3CN(CN(C3)C1)C2	inactive: 9.32%	–
N[C@H](CCl)C(=O)O	–	inconclusive: 15.8 µM [inhibitor, partial curve, poor fit]
NC[C@@H](Cc1ccccc1)P(=O)(O)O	inconclusive: 1.93%	–
CCN(CC)c1ccc(N=Cc2c(O)n(-c3ccccc3C)c(=O)[nH]c2=O)cc1	–	inconclusive: 12.6 µM [inhibitor, single point]
Oc1ccc(CCNCc2cc3c(cc2Br)OCO3)cc1	inactive: -17.8%	–
C[C@H]1CC[C@@H]2[C@@H](C)C(=O)O[C@H]3O[C@@]4(C)CC[C@H]1[C@@]32OO4	–	inconclusive: 0.158 µM [inhibitor, full curve, poor fit]
CN1CCc2cc3c(cc2[C@@H]1O)OCO3	inconclusive: 82.4%	–
N#Cc1cccc(NC(=O)N2CC3(CCN(C(=O)Oc4ccccc4)CC3)C2)c1	inactive: -17.9%	–
CC(C)[C@@H](Br)C(=O)NCC(=O)O	inconclusive: 2.93%	–
C[Se]C[C@@H](N)C(=O)O	–	inconclusive: 15.8 µM [activator, partial curve]
CC(C)c1ccc(C(O)(C(=O)O)c2ccc(C(C)C)cc2)cc1	–	inconclusive: 0.0316 µM [inhibitor, full curve, poor fit]
CC(=O)O[C@H]1CC[C@@]2(C)[C@@H](CC[C@H]3[C@H]2CC(=O)[C@]2(C)[C@@H]3C[C@@H](N3CC3)[C@H]2C(C)=O)C1	inactive: 5.69%	–
C/C(O)=C(/C#N)C(=O)Nc1cc(Br)ccc1Br	inconclusive: -49.1%	–
NC[C@H](O)c1cc(O)c(O)cc1F	inconclusive: -31.6%	–
